# ± gives the uncertainty stated by the source. In all, about 9,900 compounds were measured (“viability index relative to DMSO control”: median about 1, lowest 2% from about 0.85 on). The list shows a part of the results.
# System: Plasmodium falciparum NF54 stage V gametocytes
# Assay: viability index relative to DMSO control (fraction); higher = less gametocyte killing
# Conditions: 2.5 µM, library set: Broad Institute DOS, incubation time: 72 h
# How it was run: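 P. falciparum NF54 stage V gametocytes (serum-free medium, 0.75% gametocytemia, 1.25% hematocrit) were exposed to compound at 2.5 µM for 72 hr at 37°C under low oxygen, then stained with MitoTracker Red CMXRos and saponin for one to two hours. Red particles of 20–70 µm2 in one field per well were counted, and the viability index is that count scaled to the plate mean of solvent-only wells.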
row,Structure (SMILES),viability index
1,COc1ccc2c3c([C@H](CO)N(C[C@]33CCN(C)CC3)C(=O)Cc3ccccn3)n(C)c2c1,1.07 ± 0.054
2,CO[C@@H]1CN(C)C(=O)c2ccc(NC(=O)Nc3c(C)noc3C)cc2OC[C@@H](C)N(CCC(F)(F)F)C[C@H]1C,1.09 ± 0.058
3,C[C@@H]1CN([C@@H](C)CO)C(=O)c2cc(NC(=O)CCCN(C)C)ccc2O[C@H]1CN(C)Cc1ccc(Cl)c(Cl)c1,0.953 ± 0.062
4,CN1c2ccc(C#Cc3cccnc3)cc2[C@H]2[C@H](CCN2C(=O)CN2CCOCC2)[C@@H]1CO,1.07 ± 0.062
5,CC(=O)N1[C@H](CO)[C@H](c2ccccc2)[C@H]1CN(CC1CCC1)C(=O)CN(C)C,0.994 ± 0.02
6,CCc1cnc(N2[C@H](C#N)[C@H](c3ccc(C#Cc4ccccc4F)cc3)[C@H]2CO)s1,0.8872 ± 0.0045
7,CC(C)C[C@H]1COCc2cn(nn2)CC[C@H](C)C(=O)N1,1.082 ± 0.0066
8,Fc1ccccc1-c1ccc([C@H]2[C@H]3CNC[C@@H]2N3CC2CC2)cc1,1.06 ± 0.075
9,O=C(NCCCN1CCOCC1)[C@H]1[C@H](CO)[C@H]2Cn3c(ccc(C4=CCCCC4)c3=O)[C@@H]1N2,1.02 ± 0.0041
10,CCCC#Cc1ccc2c(c1)O[C@@H](CN(C)Cc1ccccn1)[C@@H](C)CN([C@H](C)CO)S2(=O)=O,0.958 ± 0.061
11,CN(C)Cc1cn(CC[C@H]2CC[C@H](NC(=O)Cc3cccnc3)[C@H](CO)O2)nn1,0.925 ± 0.032
12,CN(C)C(=O)c1ccc(-c2ccc([C@@H]3[C@@H]4CN(Cc5cncnc5)C[C@H]3N4)cc2)cc1,1.17 ± 0.019
13,COc1ccc2c3c([nH]c2c1)[C@@H](CO)N(Cc1nccs1)C[C@]31CCN(Cc2cccnc2)CC1,0.98 ± 0.062
14,CCN(C[C@@H]1[C@@H](c2ccccc2)[C@@H](CO)N1C(=O)COC)S(C)(=O)=O,1 ± 0.025
15,CCC(=O)N1CC2(C1)[C@H](c1ccc(-c3ccc(F)cc3)cc1)[C@H](CO)N2C(C)=O,0.9574 ± 0.0023
16,CC(C)NC(=O)N(C)C[C@H]1Oc2ccc(NC(=O)Cc3ccccc3)cc2CC(=O)N([C@@H](C)CO)C[C@H]1C,0.99 ± 0.024
17,CCS(=O)(=O)N1C[C@@]2(C1)CN(Cc1ccc3OCOc3c1)[C@H](CO)c1c2c2ccc(OC)cc2n1C,1.03 ± 0.032
18,C/C=C/c1ccc([C@@H]2[C@@H](CO)N(C(C)=O)C23CN(C(=O)NC2CCCCC2)C3)cc1,1.11 ± 0.032
19,COc1ccccc1CNC(=O)C[C@H]1CC[C@H]2[C@@H](COC[C@@H](O)CN2Cc2ccc3c(c2)OCO3)O1,1.12 ± 0.037
20,COc1cccc(S(=O)(=O)N(C)C[C@@H]2Oc3cc(Br)ccc3S(=O)(=O)N([C@@H](C)CO)C[C@@H]2C)c1,1.07 ± 0.041
21,O=C(C[C@@H]1CC[C@H]2[C@@H](COC[C@@H](O)CN2S(=O)(=O)c2cccc(Cl)c2)O1)N1CCOCC1,1.03 ± 0.084
22,COc1ccc(S(=O)(=O)N2C[C@@H](O)COC[C@@H]3O[C@H](CC(=O)N[C@H]4CCN(Cc5ccccc5)C4)CC[C@H]32)cc1,1.111 ± 0.0036
23,COc1ccc(S(=O)(=O)Nc2ccc3c(c2)C(=O)N([C@H](C)CO)C[C@H](C)[C@H](CN(C)Cc2ccc(C(F)(F)F)cc2)OCCCC[C@@H](C)O3)cc1,1.14 ± 0.026
24,N#C[C@H]1[C@@H](c2ccccc2)[C@@H](CO)N1C(=O)c1ccccc1F,1.042 ± 0.002

row,Structure (SMILES),viability index
1,CCCNC(=O)N(C)C[C@@H]1Oc2ncc(C#CC3CCCCC3)cc2C(=O)N([C@@H](C)CO)C[C@H]1C,1.11 ± 0.039
2,C/C=C/c1ccc([C@H]2[C@@H](CO)N(c3nc(C)c(C)s3)[C@@H]2CNCC(C)C)cc1,0.92 ± 0.057
3,COc1ccc(-c2ccccc2[C@@H]2[C@@H](C#N)N(C(=O)c3cccnc3)[C@@H]2CO)cc1,1.12 ± 0.063
4,CO[C@H]1CN(C)C(=O)c2ccc(NS(=O)(=O)c3ccc(C)cc3)cc2OC[C@H](C)N(C)C[C@@H]1C,1.13 ± 0.072
5,COc1ccccc1-c1cn(CC[C@@H]2CC[C@H](NC(=O)C3CCCCC3)[C@H](CO)O2)nn1,1.03 ± 0.038
6,C[C@H]1CN([C@@H](C)CO)C(=O)Cc2cc(NC(=O)C3CCCCC3)ccc2O[C@H]1CN(C)Cc1ccc(Cl)c(Cl)c1,1.02 ± 0.031
7,CN1C(=O)c2cc(NS(=O)(=O)c3cccc(F)c3)ccc2OC[C@@H]2O[C@H](CC(=O)NCCN3CCCCC3)CC[C@@H]21,0.958 ± 0.062
8,Cc1ccccc1S(=O)(=O)N1C[C@@H](O)COC[C@@H]2O[C@@H](CC(=O)N3CCCCC3)CC[C@H]21,1.09 ± 0.086
9,COc1ccccc1S(=O)(=O)N(C)C[C@@H]1OCc2cn(nn2)CCCC(=O)N([C@@H](C)CO)C[C@@H]1C,1.05 ± 0.021
10,C[C@@H]1CCCCO[C@@H](CN(C)CC2CCCCC2)[C@H](C)CN([C@@H](C)CO)C(=O)c2cc(NS(C)(=O)=O)ccc2O1,1.08 ± 0.061
11,COc1cccc(C#Cc2ccc([C@@H]3[C@H]4CN(C(=O)Cc5cccnc5)CC(=O)N4[C@H]3CO)cc2)c1,1.06 ± 0.034
12,C/C=C/c1ccc([C@H]2[C@@H](CO)N(CC3CCOCC3)C23CN(C(=O)COC)C3)cc1,1.04 ± 0.055
13,N#C[C@H]1[C@@H](c2ccccc2)[C@@H](CO)N1C(=O)c1cc(Cl)cc(Cl)c1,1.08 ± 0.056
14,COc1cccc(S(=O)(=O)N2CC[C@H]3[C@@H](CO)N(C)c4ccc(-c5ccccc5OC)cc4[C@H]32)c1,1.09 ± 0.038
15,C[C@@H]1CN([C@H](C)CO)C(=O)c2cc(N(C)C)ccc2O[C@@H](C)CCCCO[C@@H]1CN(C)S(=O)(=O)c1cn(C)cn1,0.98 ± 0.065
16,C[C@@H]1CN([C@@H](C)CO)C(=O)CCCn2nncc2CO[C@H]1CN(C)Cc1ccc2cccnc2c1,0.991 ± 0.017
17,Cc1cc(C(=O)Nc2ccc3c(c2)C(=O)N(C)[C@H]2CC[C@@H](CC(=O)O)O[C@H]2CO3)no1,0.945 ± 0.024
18,CCc1cnc(N2[C@H](CO)[C@@H](c3ccc(C#Cc4ccccc4F)cc3)[C@@H]2C#N)s1,1.11 ± 0.019
19,CN(C)C(=O)C[C@H]1CC[C@@H]2[C@@H](COc3ccc(NC(=O)C4CCCCC4)cc3C(=O)N2C)O1,0.976 ± 0.13
20,CO[C@H]1CN(C)C(=O)c2ccc(NS(C)(=O)=O)cc2OC[C@H](C)N(CC2CC2)C[C@H]1C,1.043 ± 0.003
21,CNC[C@H]1Oc2c(N)cccc2C(=O)N([C@H](C)CO)C[C@H]1C,1.04 ± 0.08
22,N#C[C@H]1[C@@H](c2ccccc2-c2ccc(F)cc2)[C@H](CO)N1C(=O)Cc1cccnc1,1.11 ± 0.048
23,N#Cc1cccc(-c2ccc3c(c2)[C@@H]2[C@@H](CCN2S(=O)(=O)c2ccc(F)cc2)[C@H](CO)N3)c1,0.844 ± 0.062
24,CCC(=O)N1C[C@]2(CCN(CC2)C(=O)Cc2ccccc2)c2c([C@@H]1CO)n(C)c1cc(OC)ccc21,0.935 ± 0.13

row,Structure (SMILES),viability index
1,C[C@@H](NC(=O)[C@@H]1[C@@H](CO)[C@@H]2Cn3c(ccc(-c4ccccc4F)c3=O)[C@H]1N2)c1ccccc1,1.05 ± 0.019
2,O=C(C[C@H]1CC[C@H]2[C@@H](COC[C@@H](O)CN2CC2CCOCC2)O1)NCc1ccc(Cl)cc1,1.08 ± 0.016
3,COCC(=O)N1C[C@H](C)[C@H](OC)CN(C)C(=O)c2ccc(NC(=O)Nc3cccc(F)c3)cc2OC[C@@H]1C,1 ± 0.03
4,O=C(c1ccc2c(c1)OCO2)N1CC[C@@H]2[C@@H](CO)Nc3ccc(C#Cc4ccccc4)cc3[C@@H]21,1.024 ± 0.0029
5,CO[C@H]1CN(C)C(=O)c2cc(NC(=O)c3ccccc3F)ccc2OC[C@@H](C)N(CC2CCOCC2)C[C@H]1C,1.04 ± 0.011
6,CO[C@@H]1CN(C)C(=O)c2ccc(NC(=O)c3ccno3)cc2OC[C@@H](C)N(S(C)(=O)=O)C[C@H]1C,1.06 ± 0.08
7,C[C@@H]1CN([C@H](C)CO)S(=O)(=O)c2ccc(C#CC(C)(C)O)cc2O[C@H]1CN(C)Cc1ccc(F)cc1,0.87 ± 0.065
8,C[C@@H]1CCCCO[C@@H](CN(C)C(=O)CCC(F)(F)F)[C@H](C)CN([C@@H](C)CO)C(=O)c2cc(NC(=O)C3CCCCC3)ccc2O1,1.13 ± 0.072
9,COc1ccc(C#Cc2ccc([C@@H]3[C@@H](CO)N4C(=O)CN(C(=O)NC(C)C)C[C@H]34)cc2)cc1,0.985 ± 0.038
10,Cc1noc(C)c1C(=O)N(C)C[C@@H]1OCc2ccccc2-c2ccccc2C(=O)N([C@H](C)CO)C[C@H]1C,0.952 ± 0.066
11,COCC(=O)N1C[C@@]2(C1)CN([C@@H](CO)c1[nH]c3cc(OC)ccc3c21)C(=O)Nc1ccccc1F,1.03 ± 0.078
12,COc1ccc2c3c([C@@H](CO)N(C)C[C@]33CCN(CC3)C(=O)CN3CCOCC3)n(C)c2c1,0.9699 ± 0.0061
13,COc1ccc2c3c([nH]c2c1)[C@@H](CO)N(CC1CC1)C[C@]31CCN(CC1)C(=O)Nc1cccc(F)c1,1.06 ± 0.017
14,Cc1ccc(-c2ccc([C@H]3[C@H]4CN(C(=O)NC(C)C)CC(=O)N4[C@H]3CO)cc2)cc1,1.076 ± 0.006
15,COc1ccc(C[C@@H]2CCn3cc(nn3)COC[C@H](c3ccccc3)NC2=O)cc1,1.03 ± 0.042
16,CN(C[C@H]1[C@H](c2ccccc2)[C@@H](CO)N1Cc1ccccn1)S(C)(=O)=O,1.04 ± 0.084
17,O=C(C[C@H]1C[C@@H]2c3cc(NC(=O)c4cccnc4)ccc3O[C@@H]2[C@@H](CO)O1)NCc1cc(F)ccc1F,1.02 ± 0.092
18,C[C@H]1CN([C@@H](C)CO)C(=O)c2cccc(N(C)C)c2O[C@H]1CN(C)C(=O)Nc1ccc(F)cc1,0.966 ± 0.053
19,C[C@H](CO)N1C[C@H](C)[C@H](CN(C)C(=O)CCCN(C)C)OCCCC[C@H](C)Oc2ccc(NC(=O)Nc3ccc4c(c3)OCO4)cc2C1=O,1.04 ± 0.034
20,C[C@@H]1CN([C@H](C)CO)C(=O)c2c(c3ccccc3n2C)-c2ccccc2CO[C@H]1CN(C)C(=O)Nc1ccc2c(c1)OCO2,0.941 ± 0.06
21,COCC(=O)N(C)C[C@H]1[C@@H](c2ccccc2)[C@H](CO)N1C(=O)Cc1ccncc1,1.074 ± 0.0017
22,O=C(C[C@H]1C[C@H]2c3cc(NC(=O)c4ccc5c(c4)OCO5)ccc3O[C@H]2[C@@H](CO)O1)NCCN1CCCCC1,1.08 ± 0.037
23,CC(=O)N1[C@H](CN(C)S(=O)(=O)c2ccccc2)[C@H](c2ccccc2)[C@@H]1CO,1.02 ± 0.065

# Reference: the supplement of paper PMC4723716
